Test results taken from the supplement of paper PMC10338343.
± gives the standard deviation. Only a part is listed here, and it is no random draw.

Tested on: MIWI (PIWIL1) piRISC loaded with piRNA #1 (30 nt)
Test: pre-steady-state target cleavage rate (min^-1); MIWI and MILI are mouse PIWI proteins and EfPiwi is from a freshwater sponge; tags in brackets are library labels; higher = faster piRNA-guided slicing of the target
Conditions: guide: piRNA #1 5'p-UGAGGUAGUAGGUUGUAUAGUAUCCAGAGG; auxiliary factor: 500 nM mouse GTSF1
In short: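 A burst-and-steady-state fit was used to obtain the pre-steady-state cleavage rate. The input data were sequencing reads of uncleaved targets, normalised to depth and to weakly complementary targets, from a […] transcribed, DNA-blocked target RNA library mixed with 1 nM active affinity-purified piRISC holding one synthetic guide, with or without 500 nM GTSF1 partner protein, in HEPES–potassium acetate buffer at 33 °C for 0–8 or 0–960 min. Three trials were pooled and k3 was capped at 0.0001 min^-1.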
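Further: 1 nM active piRISC with 0.1 nM target library at 33 °C single turnover.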

| Sequence | pre-steady-state target cleavage rate |
| --- | --- |
| GGAGACCAUACUAUACAAGCUAGUACCUCA | 0.379 ± 0.025 |
| GGAGACCAUACUAUACAACCUACUCACCUCA | 0.955 ± 0.067 |
| GGAGAGGAUACUAUACAUGGUACUACCUCA | 0.0299 ± 0.0069 |
| GGAGAGGAUACUAUACAACCAACUUCCUCA | 0.0155 ± 0.0039 |
| CCUCUGGAUACUUAUACAACCUACUACCUCA | 1.7 ± 0.097 |
| GGACUGGAUACUAUUCAACCUACUACCUGA | 0.49 ± 0.099 |
| GGACUGGAUUCUAUACAACCUACUACCACA | 0.861 ± 0.07 |
| GCUGUGGAAACUAUACAACCUACUACCUCA | 1.56 ± 0.11 |
| GGAGACGAUACUAUACAACCUACUACCUA | 0.851 ± 0.084 |
| GGACUGCUAACUAUACAACCUACUACCUCA | 1.05 ± 0.093 |
| GCUCAGGAUACUAUUCAACCUACUACCUCA | 2.09 ± 0.13 |
| GGUCUGGAUACUAAACAACCUACUACCUGA | 0.742 ± 0.13 |
| GGAGAGGAUAACUAUACAACCUACUACCUCA | 0.887 ± 0.054 |
| CUCUGGAUACUAUACAACCUACUACCUCA | 2.17 ± 0.14 |
| CCUCUGGAUACUAUACAACGUACUACGUCA | 0.779 ± 0.079 |
| GGAGACCUUACUAUACAACCUACUACCUCG [g2:g22:cont:t1G] | 1.17 ± 0.068 |
| GCUCUGGAUACUAUACAACCUACUUGGUCA | 0.0102 ± 0.0042 |
| GGAGACCUAUGAUAACAACCUCACUACCUCA | 0.00789 ± 0.0021 |
| GGAGAGGAUACUUUACAACCUAGUACCUCA | 0.118 ± 0.02 |
| GGACUGGAUAGUAUACAAGCUACUACCUCA | 0.313 ± 0.037 |

| Sequence | pre-steady-state target cleavage rate |
| --- | --- |
| GCUCUCGAUACUAUACAACCUACUUCCUCA | 0.735 ± 0.042 |
| GGAGAGGAUACUAUACAAGCUACUAGCUCA | 0.279 ± 0.045 |
| CCUCUGGAUACUAUACAUCCUACUUCCUCA | 0.401 ± 0.059 |
| GGAGACCAUACUAUACAACCUAGUACCUCA | 0.456 ± 0.03 |
| GGAGACGAUACUAAACAACGUACUACCUCA | 0.614 ± 0.047 |
| GCUCUGGAUACUAUACAACACUACUACCUCA | 0.00578 ± 0.0038 |
| GGACAUGGAUACUAUACAACCUACUACCUCA | 1.72 ± 0.092 |
| GGAGACCUAUCUAUACAUCCUACAACCUCA | 0.0883 ± 0.016 |
| GGAGACCUAUGUAUACAUCCUUCUACCUCA | 0.00379 ± 0.002 |
| GGAGACCUAUCUAUACAACCUAGAACCUCA | 0.00892 ± 0.0022 |
| GGAGACCAUACUAAACAACGUACUACCUCA | 0.22 ± 0.028 |
| GGAGACCUUACAAUACAACCUAGUACCUCA | 0.159 ± 0.032 |
| GGACUGGAUACUAUUCAACCUACUACCACA | 0.421 ± 0.051 |
| GGACUGGAUACUAUACAUCCUACUACCUGA | 0.531 ± 0.073 |
| CCUCUGGAUACAAUACAAGCUACUACCUCA | 1.45 ± 0.077 |
| GGAGAGGAUACUAUACAGCCUACUACCUCA | 0.57 ± 0.027 |
| CCUCUGGAUACUAUACUACCUACUACCUCA | 1.65 ± 0.12 |
| GGAGACCUAUGAUAUGUUCCUACUACCUCA [g2:g12:cont:t1A] | < 0.0001 |
| GGAGUGGUAACUAUACAACCUACUACCUCA | 1.2 ± 0.073 |
